# In publication PMC4336329 (PLoS ONE, 2015):
# Screen size: about 310,000 compounds; about 14,000 (4.5%) showed an effect of 50% or more. The effect is printed as a negative number. This is one part of the list.
# Biological target: human ether-à-go-go-related gene (hERG) potassium channel (human, UniProt Q12809)
# Assay: primary screen, population patch clamp on CHO cells stably expressing hERG
# 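Also: peak tail current of the secondary pulse compared with the same well before compound.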
# human ether-à-go-go-related gene (hERG) potassium channel, sequence (Q12809 whole entry, looked up): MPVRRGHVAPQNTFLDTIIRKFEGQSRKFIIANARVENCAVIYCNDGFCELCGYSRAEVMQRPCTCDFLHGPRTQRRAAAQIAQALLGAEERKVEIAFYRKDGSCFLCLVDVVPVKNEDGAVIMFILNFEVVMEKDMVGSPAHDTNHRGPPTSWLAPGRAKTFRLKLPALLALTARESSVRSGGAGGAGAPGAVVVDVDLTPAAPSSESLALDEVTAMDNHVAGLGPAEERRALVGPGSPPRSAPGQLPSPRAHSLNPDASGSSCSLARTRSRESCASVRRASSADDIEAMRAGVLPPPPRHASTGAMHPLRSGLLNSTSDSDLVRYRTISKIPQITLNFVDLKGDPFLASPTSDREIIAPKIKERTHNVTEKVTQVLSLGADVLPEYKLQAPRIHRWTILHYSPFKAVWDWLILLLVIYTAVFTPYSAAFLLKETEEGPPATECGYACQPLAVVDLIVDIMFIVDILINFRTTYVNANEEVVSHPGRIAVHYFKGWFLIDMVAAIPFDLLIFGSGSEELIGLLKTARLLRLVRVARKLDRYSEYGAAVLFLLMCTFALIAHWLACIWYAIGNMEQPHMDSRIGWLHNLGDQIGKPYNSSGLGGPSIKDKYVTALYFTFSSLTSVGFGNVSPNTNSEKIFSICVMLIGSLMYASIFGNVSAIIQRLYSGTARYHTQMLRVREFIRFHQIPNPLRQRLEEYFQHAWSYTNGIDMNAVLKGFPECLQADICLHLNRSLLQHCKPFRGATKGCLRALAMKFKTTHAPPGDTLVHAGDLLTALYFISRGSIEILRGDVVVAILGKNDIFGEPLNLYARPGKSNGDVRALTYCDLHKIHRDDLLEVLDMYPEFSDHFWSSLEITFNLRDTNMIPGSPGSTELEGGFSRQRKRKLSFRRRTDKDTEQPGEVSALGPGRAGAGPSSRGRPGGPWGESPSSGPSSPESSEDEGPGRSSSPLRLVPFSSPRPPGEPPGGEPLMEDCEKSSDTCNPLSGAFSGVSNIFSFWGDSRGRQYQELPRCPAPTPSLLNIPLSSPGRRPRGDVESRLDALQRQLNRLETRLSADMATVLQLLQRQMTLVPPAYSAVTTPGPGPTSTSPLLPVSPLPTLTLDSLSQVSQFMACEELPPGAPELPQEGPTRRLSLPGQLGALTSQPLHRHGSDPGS
row,SMILES,"hERG current change (%, negative = inhibition) at 10uM"
1,O=C(COc1ccccc1Cl)NNC(=O)Cn1[nH]c(=O)c2ccccc2c1=O,-17.2%
2,C=CCC1(CC=C)CCCN1C(=O)CC1C(=O)NCCN1Cc1cc(OC)cc(OC)c1 (stereo not drawn),6.89%
3,CN(C)S(=O)(=O)c1ccc(NC(=O)C2CC3C=CC2C3)cc1 (stereo not drawn),9.32%
4,COc1cc(Br)cc2cc(C(=O)N3CCN(C(=O)c4ccco4)CC3)c(=O)oc12,-29.3%
5,O=C(O)C1OC(Oc2c(-c3ccc(O)c(O)c3)oc3cc(O)cc(O)c3c2=O)C(O)C(O)C1O (stereo not drawn),20.3%
6,Cc1csc(SCC(=O)Nc2ncc(Cl)c(C)c2Cl)n1,-8.92%
7,Nc1ncnc(Sc2ccc(Cl)cc2)c1[N+](=O)[O-],5.68%
8,Cc1[nH]nc2c1C(c1ccc(O)cc1)C1=C(CC(C)(C)CC1=O)N2 (stereo not drawn),20.1%
9,CC(=O)c1sc(NC(=O)c2cc3c(C)nn(-c4ccccc4)c3s2)nc1C,18.8%
10,Cc1cc(C)n(C(=O)c2ccc(C)c(F)c2F)n1,3.16%
11,O=C(NCCc1ccccc1)C1CCCN(S(=O)(=O)c2cccc3nsnc23)C1 (stereo not drawn),13.5%
12,Nc1c2c(nc3ccccc13)CCN(Cc1ccccc1)C2,-56.1%
13,COc1ccc(Cc2nn3c(-c4ccccc4Br)nnc3s2)cc1,-24.3%
14,Cc1cc(O)c(/C=N/Nc2cccc(Cl)c2)c(=O)o1,1.55%
15,O=C(CSc1nc2ccccc2c(=O)n1CC1CCCO1)NCC1CCCO1 (stereo not drawn),-23.3%
16,Cn1c(-c2ccccc2)cnc1NCc1cc2c(cc1[N+](=O)[O-])OCO2,-55%
17,CC(C)CN(C(=O)CSc1nnc2ccccn12)c1c(N)n(CC(C)C)c(=O)[nH]c1=O,10.1%
18,COc1ccc2nc(Nc3nc4cc5c(cc4s3)OCCO5)sc2c1,1.61%
19,COc1cc(NC(=O)CSc2nc3c(C)ccc(C)c3cc2C)c(C(=O)O)cc1OC,6.24%
20,Cc1oc(-c2ccccc2Cl)nc1CS(=O)(=O)CC(=O)NCCN1CCOCC1,-2.44%
21,Cc1cc2c(c(Sc3ccccc3)n1)C(=O)OC2,-6.04%
22,Cc1ccc(NC2OC(CO)C(O)C2O)cc1[N+](=O)[O-] (stereo not drawn),-0.74%

row,SMILES,"hERG current change (%, negative = inhibition) at 10uM"
1,CC(=O)Nc1ccc(OC(F)(F)C(F)C(F)(F)F)c(NC(C)=O)c1 (stereo not drawn),-2.05%
2,Clc1ccc(-c2nc(Cc3ccccc3Cl)no2)cc1,-0.151%
3,O=C(NC1=NCCS1)c1cccc(OC(F)F)c1,-7.06%
4,COC(=O)c1cccc(C(=O)Nc2ccc(C)cc2Br)n1,-6.53%
5,CC(=O)N1CN(CCCn2ccnc2)Cc2c1sc1c2CCCC1,-5.68%
6,C=CCSc1nnc(NC(=O)c2ccc(S(=O)(=O)NCC3CCCO3)cc2)s1 (stereo not drawn),13.5%
7,CCNC(=O)NC(=O)C(C)OC(=O)[C@H](C)NS(=O)(=O)c1c(C)c(C)cc(C)c1C (stereo partly drawn),-8.81%
8,CSc1ccc(C(=O)C2CCCN(C(=O)Cn3cnnn3)C2)cc1 (stereo not drawn),-12.8%
9,CCC(C)N1CCNCC1.Cl (stereo not drawn),20.1%
10,COc1cc(/C=N/NC(=O)CCc2c(C)n[nH]c2C)ccc1O,10.4%
11,O=S(=O)(N1CCCCC1)N1CCN(c2ccccc2F)CC1,3.85%
12,CC(=O)Nc1sc(C)c(C)c1CN1CCN(S(=O)(=O)c2ccccc2)CC1,-40.4%
13,CS(=O)(=O)c1ccc2nc(NC(=O)c3cccc(Cl)c3)sc2c1,9.47%
14,N#C/C(=C\c1ccc(F)cc1)C(=O)NC1CCS(=O)(=O)C1 (stereo not drawn),7.7%
15,O=C(COc1ccc(S(=O)(=O)N2CCCCC2)cc1Cl)N1CCOCC1,16.2%
16,CN=c1scc(C)n1/N=C/c1ccc(O)cc1,4.97%
17,CC(C)OC(=O)Nc1ccc(-c2ccc(NC(=O)OC(C)C)cc2Cl)c(Cl)c1,24.5%
18,O=S(=O)(CC(O)COc1ccc(Br)cc1)c1ccccc1 (stereo not drawn),-5.07%
19,O=C(N1CCCCC1)N1CCN(S(=O)(=O)c2ccccc2)CC1,10.4%
20,COc1ccc(C(=O)N[C@H](C(=O)Nc2nc3c(s2)CCCC3)C(C)C)cc1,-4.13%
21,COc1ccc(-c2nc(=S)c3c([nH]2)Oc2ccc(C)cc2C3)cc1O,10.3%
22,COC(=O)C1=C(c2c(C)noc2C)C[C@@H]2CC[C@H]1N2C(=O)NCCOc1ccccc1Cl,-3.65%

row,SMILES,"hERG current change (%, negative = inhibition) at 10uM"
1,COCCn1c(=O)[nH]c2cc(C(=O)NCCN3CCN(c4ccc(OC)cc4)CC3)ccc2c1=O,10.3%
2,N/C(=N\NS(=O)(=O)c1ccccc1Cl)c1ccccn1,15.1%
3,COc1ccc(N(C)S(=O)(=O)c2ccc(Cl)c(C(=O)NCC(C)(C)N3CCOCC3)c2)cc1,-41.5%
4,CCN1C(=O)N(C)[C@@H](c2ccccc2)C(C(C)=O)=C1C,23.8%
5,Cc1nnc2c(NCCc3ccccc3)nc3ccccc3n12,12.1%
6,COc1ccc(OCC(O)CN(C)C(=O)C(C)Oc2ccccc2)cc1 (stereo not drawn),6.31%
7,CCCN1CCN(C(=O)c2oc3ccccc3c2NC(=O)COc2ccc(OC)cc2)CC1,-79.5%
8,COc1ccc(C2C(C(=O)NC(C)C)c3ccccc3C(=O)N2C)cc1OC (stereo not drawn),12.6%
9,COc1ccc(S(=O)(=O)N2CCN(C(=O)c3oc4ccccc4c3C)CC2)cc1,-12.9%
10,COc1ccc(OC)c(C(=O)CSc2nnc(Cc3cccs3)n2C)c1,-22.4%
11,CN(CC(=O)O)S(=O)(=O)c1cc(Cl)ccc1Cl,-2.81%
12,Cc1cc(=O)oc(C)c1C(=O)NCCCN1C(C)CCCC1C (stereo not drawn),18%
13,COc1ccc(OCCNS(=O)(=O)c2cccc([N+](=O)[O-])c2)cc1,-5.23%
14,Cc1cc(Oc2cc(NN3CCCCC3)c([N+](=O)[O-])cc2[N+](=O)[O-])c(C(=O)c2ccccc2)cc1Cl,3.03%
15,Cl.N=C(N)SCP(=O)(c1ccccc1)c1ccccc1,14.1%
16,Cc1cc(OCC(=O)NCc2ccc(S(N)(=O)=O)cc2)c2c3c(c(=O)oc2c1)CCC3,15.8%
17,C=CCNc1nc(=S)[nH]c2cc(OC)c(OC)cc12,4.38%
18,CCCOc1ccc(C2C3=C(Nc4nc(N)[nH]c(=O)c42)c2ccccc2C3=O)cc1 (stereo not drawn),-3.23%
19,COc1ccc(CCNC(=O)C(=O)NCc2ccccc2)cc1OC,9.59%
20,O=C(Cc1ccc(Cl)cc1)NCCS(=O)(=O)N1CCN(c2ccccc2F)CC1,-10.6%
21,Cc1cc(NC(=O)c2cccnc2Cl)ccc1NC(=O)c1cc2ccccc2o1,25.4%
22,O=C1CCC(=O)N(O)CCCCCNC(=O)CCC(=O)N(O)CCCCNC(=O)CCC(=O)N(O)CCCCCN1,11.6%

row,SMILES,"hERG current change (%, negative = inhibition) at 10uM"
1,COc1ccccc1CC(=O)NC1CCCc2ccccc21 (stereo not drawn),-32.8%
2,CCCCc1cc(=O)oc2cc(O)ccc12,-30.3%
3,CCOc1ccc(NC(=O)COC(=O)c2ccc3c(c2)OCCO3)cc1,9.29%
4,CCOc1ccccc1C1CC(=O)Nc2cc3c(cc21)OCCO3 (stereo not drawn),-2.02%
5,O=C(c1ccc([N+](=O)[O-])cc1)n1nc(-c2ccccc2)nc1NCc1ccccc1,-4.24%
6,COc1ccc(/C=N/OCC(=O)NC(c2ccccc2)c2ccccc2)c(OC)c1,-35.1%
7,N#CCC(=O)NC(=O)NCC1CC1,1.74%
8,O=C(COc1ccccc1Cl)Nc1ccc(C(=O)O)cc1NC(=O)COc1ccccc1Cl,16.4%
9,CCN(CC)c1ccc(/C=N/NS(=O)(=O)c2ccc(C)c([N+](=O)[O-])c2)cc1,8.95%
10,CC(CCc1ccccc1)NC(=O)COC(=O)c1ccc(NC(=O)CC#N)cc1 (stereo not drawn),7.38%
11,O=S(=O)(Nc1ccc(OC(F)(F)F)cc1)c1cccc2nonc12,9.33%
12,COc1ccc(-c2nnn(CC(=O)N(CC(=O)NCCC(C)C)Cc3cccs3)n2)cc1OC,-26.8%
13,Cc1ccc2c(c1)CCCN2C(=O)c1ccco1,0.562%
14,COc1ccc(OC)c(NC(=O)c2c3c(nc4ccccc24)CCC3)c1,-21.8%
15,CC1=CC(=O)C=C(C)C1=NOC(=O)/C=C\c1ccccc1,15.9%
16,CSc1nc2c(c(-c3ccc(O)cc3)c1C#N)CCC2,12.6%
17,O=[N+]([O-])c1cccc(/C=C2\CCC(/C=N/Nc3ccc4ccccc4n3)=C2N2CCOCC2)c1,7.73%
18,COC(=O)Nc1c(C(=O)OC)cc(OC)c(OC)c1OC,-1.17%
19,C/C=C(\C)CN1CCC(n2nccc2NC(=O)CCc2ccccc2)CC1,-28.9%
20,CC(=O)NCC(=O)N1CCC(n2nccc2NC(=O)CCCc2ccccc2)CC1,-17.7%
21,CC(=O)Oc1cccc(N2C(=O)C3CC=C(Cl)CC3C2=O)c1 (stereo not drawn),-2.74%
